From PubChem BioAssay (NCI) come the findings set out here.

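Dose response: 5 concentrations. Exposure: 48 h. Format: 96-well plates. Endpoint: linear interpolation; highest concentration if not reached. GI50: concentration for 50% inhibition of growth. TGI denotes the concentration required for complete inhibition of growth.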 Bounds are passed on as bounds.

The test system of this assay is NCI-H322M lung. As to the kind of experiment: inhibition of tumour cell growth, NCI panel, 48 h.
As to `O=C(N/N=C/c1ccc(Br)o1)c1[nH]c2ccc(Br)cc2c1-c1ccccc1`, the GI50 is 0.661 µM and the TGI is > 52.4 µM.
Consider `C[C@H]1[C@@H](CC(=O)N[C@@H](Cc2coc3ccccc23)B(O)O)O[C@@H]2OC3(C)CC[C@H]4[C@H](C)CC[C@@H]1[C@@]24O3`, for which the GI50 is 17.7 µM and the TGI worked out at 99.8 µM.
With `FC(F)(F)c1cc2c(Cl)ncnc2n1CCN1CCCCC1`, the GI50 is 15.6 µM and the TGI is 44 µM.
Regarding `COc1cc(Nc2nc(O)c(/C=C3\C=Nc4ccccc43)s2)cc(OC)c1OC`, the GI50 was 6.38 µM and the TGI came to 21.2 µM.
